Experimental data published in the supplement of paper PMC4604168 (melanoma cell lines).
The other results are listed elsewhere or left out. Repeats are few or missing, and single values can be far off.

Key:
Assay in all cases: cell count relative to DMSO control; melanoma cells; higher = more viable cells
Conditions in all cases: library dose: standard library concentration; 72 h
G361 = tested on: G361
IPC-298 = tested on: IPC-298
IST-MEL1 = tested on: IST-MEL1
LB2518-MEL = tested on: LB2518-MEL
LOXIMVI = tested on: LOXIMVI
MEL-HO = tested on: MEL-HO
MZ2-MEL = tested on: MZ2-MEL
MeWo = tested on: MeWo
RPMI7951 = tested on: RPMI7951
RVH-421 = tested on: RVH-421
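Further: cells treated in 1,536-well plates, then fixed and DAPI-stained, with nuclei counted from automated high-throughput microscope images.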

CC(C)C[C@H](NC(=O)[C@H](Cc1ccccc1)NC(=O)c1cnccn1)B(O)O [Bortezomib] + COc1ccc2c(c1)CCC1C2CCC2(C)C(NCCCCCCN3C(=O)C=CC3=O)CCC12 [U73122] (first compound 0.005 µM, partner dose 2 µM)
cell count (G361): 0.593% | cell count (IPC-298): 36.7% | cell count (IST-MEL1): 33.3% | cell count (LB2518-MEL): 13.8% | cell count (LOXIMVI): 30% | cell count (MEL-HO): 58.8% | cell count (MZ2-MEL): 29.7% | cell count (MeWo): 8.15% | cell count (RPMI7951): 7.68% | cell count (RVH-421): 18.9%

COc1ccc(C2=N[C@@H](c3ccc(Cl)cc3)[C@@H](c3ccc(Cl)cc3)N2C(=O)N2CCNC(=O)C2)c(OC(C)C)c1 [Nutlin-3] + Cn1c(=O)n(-c2ccc(C(C)(C)C#N)cc2)c2c3cc(-c4cnc5ccccc5c4)ccc3ncc21 [NVP-BEZ235] (first compound 0.5 µM, partner dose 0.02 µM)
cell count (G361): 44.4% | cell count (IPC-298): 87.9% | cell count (IST-MEL1): 80.7% | cell count (LB2518-MEL): 84.3% | cell count (LOXIMVI): 40.2% | cell count (MEL-HO): 65.8% | cell count (MZ2-MEL): 67.7% | cell count (MeWo): 58.4% | cell count (RPMI7951): 97.4% | cell count (RVH-421): 73.2%

Cn1c(=O)n(-c2ccc(C(C)(C)C#N)cc2)c2c3cc(-c4cnc5ccccc5c4)ccc3ncc21 + O=C(O)c1ccc(-c2c[nH]c3ncc(-c4ccccc4)cc23)cc1C1CCCC1 [GSK650394] (first compound 0.02 µM, partner dose 0.8 µM)
cell count (G361): 60.9% | cell count (IPC-298): 81% | cell count (IST-MEL1): 60.9% | cell count (LB2518-MEL): 89.3% | cell count (LOXIMVI): 81% | cell count (MEL-HO): 66.6% | cell count (MZ2-MEL): 91% | cell count (MeWo): 62.9% | cell count (RPMI7951): 69.8% | cell count (RVH-421): 88.7%

CC(C)C[C@H](NC(=O)[C@H](Cc1ccccc1)NC(=O)c1cnccn1)B(O)O [Bortezomib] + Nc1cccc2c1CN(C1CCC(=O)NC1=O)C2=O [lenalidomide] (first compound 0.005 µM, partner dose 5 µM)
cell count (G361): 1.59% | cell count (IPC-298): 9.75% | cell count (IST-MEL1): 9.29% | cell count (LB2518-MEL): 2.8% | cell count (LOXIMVI): 26.5% | cell count (MEL-HO): 34.8% | cell count (MZ2-MEL): 3.7% | cell count (MeWo): 23.8% | cell count (RPMI7951): 6.81% | cell count (RVH-421): 10.6%

Cn1c(=O)n(-c2ccc(C(C)(C)C#N)cc2)c2c3cc(-c4cnc5ccccc5c4)ccc3ncc21 + C=C(c1ccc(C(=O)O)cc1)c1cc2c(cc1C)C(C)(C)CCC2(C)C [Bexarotene] (first compound 0.02 µM, partner dose 10 µM)
cell count (G361): 52.4% | cell count (IPC-298): 68.8% | cell count (IST-MEL1): 85.4% | cell count (LB2518-MEL): 77.9% | cell count (LOXIMVI): 157% | cell count (MEL-HO): 68.1% | cell count (MZ2-MEL): 77.1% | cell count (MeWo): 72.2% | cell count (RPMI7951): 69.4% | cell count (RVH-421): 66.3%

Cc1cc(Nc2cc(N3CCN(C)CC3)nc(/C=C/c3ccccc3)n2)n[nH]1 + Cn1c(=O)n(-c2ccc(C(C)(C)C#N)cc2)c2c3cc(-c4cnc5ccccc5c4)ccc3ncc21 [NVP-BEZ235] (first compound 0.2 µM, partner dose 0.02 µM)
cell count (G361): 56.8% | cell count (IPC-298): 80.9% | cell count (IST-MEL1): 75.6% | cell count (LB2518-MEL): 77.2% | cell count (LOXIMVI): 46.6% | cell count (MEL-HO): 66.6% | cell count (MZ2-MEL): 76.8% | cell count (MeWo): 54.8% | cell count (RPMI7951): 48.7% | cell count (RVH-421): 48.8%

Cn1c(=O)n(-c2ccc(C(C)(C)C#N)cc2)c2c3cc(-c4cnc5ccccc5c4)ccc3ncc21 + CN(C)S(=O)(=O)c1ccc2c(c1)/C(=C/c1cc3c([nH]1)CCCC3)C(=O)N2 [SU6656] (first compound 0.02 µM, partner dose 2 µM)
cell count (G361): 74.5% | cell count (IPC-298): 96.3% | cell count (IST-MEL1): 71.5% | cell count (LB2518-MEL): 81.7% | cell count (LOXIMVI): 119% | cell count (MEL-HO): 80.1% | cell count (MZ2-MEL): 86.2% | cell count (MeWo): 63.5% | cell count (RPMI7951): 55.7% | cell count (RVH-421): 99%

COc1ccc(C2=N[C@@H](c3ccc(Cl)cc3)[C@@H](c3ccc(Cl)cc3)N2C(=O)N2CCNC(=O)C2)c(OC(C)C)c1 [Nutlin-3] + CC(=O)O[C@@]12CO[C@@H]1C[C@H](O)[C@@]1(C)C(=O)[C@H](O)C3=C(C)[C@@H](OC(=O)[C@H](O)[C@@H](NC(=O)OC(C)(C)C)c4ccccc4)C[C@@](O)([C@@H](OC(=O)c4ccccc4)[C@H]21)C3(C)C [Docetaxel] (first compound 0.5 µM, partner dose 0.0005 µM)
cell count (G361): 16.1% | cell count (IPC-298): 39.8% | cell count (IST-MEL1): 37.9% | cell count (LB2518-MEL): 44.1% | cell count (LOXIMVI): 48.4% | cell count (MEL-HO): 42.4% | cell count (MZ2-MEL): 39.6% | cell count (MeWo): 29.4% | cell count (RPMI7951): 29% | cell count (RVH-421): 49.3%

Cc1cc(Nc2cc(N3CCN(C)CC3)nc(/C=C/c3ccccc3)n2)n[nH]1 + Nc1cccc2c1CN(C1CCC(=O)NC1=O)C2=O [lenalidomide] (first compound 0.2 µM, partner dose 5 µM)
cell count (G361): 99.4% | cell count (IPC-298): 93.2% | cell count (IST-MEL1): 83.4% | cell count (LB2518-MEL): 99.2% | cell count (LOXIMVI): 79.7% | cell count (MEL-HO): 96.3% | cell count (MZ2-MEL): 98.3% | cell count (MeWo): 96.7% | cell count (RPMI7951): 75.7% | cell count (RVH-421): 93.7%

Cc1cc(Nc2cc(N3CCN(C)CC3)nc(/C=C/c3ccccc3)n2)n[nH]1 + Oc1cc(-c2nc(-c3ccccc3)[nH]c2-c2ccncc2)ccc1Cl [L779450] (first compound 0.2 µM, partner dose 1 µM)
cell count (G361): 64.4% | cell count (IPC-298): 77.7% | cell count (IST-MEL1): 89.3% | cell count (LB2518-MEL): 82% | cell count (LOXIMVI): 98.1% | cell count (MEL-HO): 81.7% | cell count (MZ2-MEL): 88.5% | cell count (MeWo): 61% | cell count (RPMI7951): 54.3% | cell count (RVH-421): 72.3%
